Reference: PMC3547949, “The Immunosuppressive Agent Mizoribine Monophosphate Is an Inhibitor of the Human RNA Capping Enzyme” (PLoS ONE, 2013)

System: HEK 293T cells
Assay: Inhibition of mRNA cap formation in cells (firefly luciferase reporter)
Details: 40 µM and 120 µM mizoribine; versus HCE-K294A-HA, GFP and control cells

Structure (SMILES): NC(=O)c1ncn([C@@H]2O[C@H](CO)[C@@H](O)[C@H]2O)c1O [mizoribine]
- reporter gene translation in cells over-expressing HCE-WT-HA: partially rescued
